In PubChem BioAssay AID602340 (Broad Institute, 2012):
Values joined by “and” are separate entries in the source; they are usually repeats but may differ in a detail not shown here. Equal values may be shown once. Out of some 330,000 compounds screened, about 2,600 (0.79%) were called active. The inconclusive results got no clear call from the source; some entries with a clear call stand among them for comparison.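 How the source made its calls: active means mean ATP rescue above about 67%, or every replicate alone reaching that limit (limit read from the data, passing the limit was not always enough); inconclusive means no clear call, values can overlap the other calls; inactive means mean under the limit and some replicate under it.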

Test: suppressors of statin myotoxicity in C2C12 myotubes, primary screen, cell-based, single point, plate reader (AID 602340);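 further: myotubes were challenged with 10 µM simvastatin during compound exposure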
Details: C2C12 myotubes + simvastatin, ATP luminescence, 48 h; at 7.49 µM; hits give high values; scaled: DMSO 0, geranylgeraniol control 100

SMILES | rescue of ATP level
O=C(NCCN1CCOCC1)c1cc2sccc2n1Cc1ccc(Cl)cc1 | inconclusive: 65.5%
CC(=O)Oc1c(Cl)cc(Cl)cc1/C=C/c1ccc2ccccc2n1 | inconclusive: 78.7%
COCCCNC(=S)N1CCC(NC(=O)c2ccco2)CC1 | inconclusive: 8.6%
CN(C)C(CNC(=O)c1cccc(S(=O)(=O)Nc2ccccc2Cl)c1)c1ccco1 (stereo not given) | inactive: -10.8%
C[C@@H]1CN([C@@H](C)CO)C(=O)c2cc(NS(=O)(=O)c3ccc(Cl)cc3)ccc2O[C@@H](C)CCCCO[C@@H]1CN(C)C(=O)Nc1cccc2ccccc12 | active: 142%
COc1cc(/C=C2\CCC/C(=C\c3ccc(O)c(OC)c3)C2=O)ccc1O | inconclusive: 41.1%
C[C@@H]1CCCCO[C@H](CN(C)CC2CCCCC2)[C@@H](C)CN([C@H](C)CO)C(=O)c2cc(NS(=O)(=O)c3ccccc3)ccc2O1 | inconclusive: 66.3%
C[C@H]1CN([C@@H](C)CO)S(=O)(=O)c2ccc(C#Cc3ccccc3)cc2O[C@@H]1CN(C)C(=O)Cc1ccccn1 | inconclusive: 79.6%
CCS(=O)(=O)Nc1ccc2c(c1)C(=O)N(C)[C@@H]1CC[C@H](CC(=O)N3CCN(C)CC3)O[C@@H]1CO2 | inactive: 5.84%
OC(c1ccc(F)c(F)c1)c1nc(-c2ccc3c(c2)OCO3)cs1 (stereo not given) | inconclusive: 75.6%
C[C@@H]1CN([C@H](C)CO)C(=O)Cc2cc(NC(=O)Nc3ccc4c(c3)OCO4)ccc2O[C@H]1CN(C)CC1CCCCC1 | inactive: 7.9%
C[C@H](CO)N1C[C@H](C)[C@@H](CN(C)C(=O)Nc2ccc(F)cc2)OCCCC[C@H](C)Oc2ccc(NC(=O)Cc3ccccc3)cc2C1=O | inconclusive: 70.6%
COc1cc(/C=N/Nc2nc(C)cc(C)n2)ccc1O | inactive: -4.92%
C[C@@H]1CN([C@H](C)CO)C(=O)Cc2cc(NS(=O)(=O)c3ccc(F)cc3)ccc2O[C@@H]1CN(C)Cc1ccc(Cl)c(Cl)c1 | inconclusive: 66.7%
COc1ccc(C(=O)N(Cc2ccco2)C(C(=O)NC2CCCC2)c2ccc(O)cc2)cc1OC (stereo not given) | inconclusive: 70.6%
COc1ccc(CN(C(=O)c2ccco2)c2ccc(Br)cc2)cc1OC | inconclusive: 80%
C[C@@H]1CN([C@@H](C)CO)C(=O)c2cc(N(C)C)ccc2O[C@H]1CN(C)Cc1ccc(-c2ccccc2)cc1 | inconclusive: 70%
CN1C(=O)C2(Oc3ccccc3C3CC(c4ccccc4)=NN32)c2ccccc21 (stereo not given) | inconclusive: 78.1%
C[C@@H]1CN([C@@H](C)CO)C(=O)Cc2cc(NC(=O)Cc3cn(C)c4ccccc34)ccc2O[C@H]1CN(C)Cc1ccc(C(F)(F)F)cc1 | active: 104%
COc1ccc(NC(=O)COc2ccc(Br)cc2)c(OC)c1 | inactive: 10.8%
Cc1ccc(C)c(/C(O)=C2\C(=O)C(=O)N(CCCn3ccnc3)C2c2ccncc2)c1 (stereo not given) | active: 83.7%
C[C@@H]1CN([C@@H](C)CO)C(=O)c2cc(C#CC3CCCCC3)cnc2O[C@H]1CN(C)S(=O)(=O)c1ccc(F)cc1 | inconclusive: 66.8%
C[C@@H]1CN([C@H](C)CO)C(=O)c2cccc(NC(=O)Nc3ccc(F)cc3)c2O[C@H]1CN(C)Cc1ccccc1 | active: 72%
CC(C)NC(=O)Cn1nnc(-c2ccccc2)c1COc1ccc2ccccc2c1 | inconclusive: 93.7%
COCCN(C(=O)/C=C/c1cccc([N+](=O)[O-])c1)c1c(N)n(Cc2ccccc2)c(=O)[nH]c1=O | inconclusive: 70.9%

SMILES | rescue of ATP level
O=C([C@@H]1N[C@@H]2c3ccc(-c4ccccc4)c(=O)n3C[C@@H]2[C@H]1CO)N1CCOCC1 | inactive: -1.37%
Cc1cc(F)ccc1-c1cc(C(=O)NCc2cccc(C(F)(F)F)c2)[nH]n1 | inconclusive: 104%
O=c1c2c(nc(NCCO)n1CC1CCCCC1)-c1ccccc1CC21CCCC1 | inconclusive: 72.4%
CCOc1ccccc1-n1c(SCC(=O)Nc2ccccc2C(=O)O)nc2ccccc2c1=O | inconclusive: 84.2%
Clc1cccc(CSc2nnc(-c3c[nH]c4ccccc34)o2)c1 | inconclusive: 70.5%
CO[C@@H]1CN(C)C(=O)c2ccc(NC(C)=O)cc2OC[C@@H](C)N(C(=O)CN(C)C)C[C@H]1C | inactive: -2.61%
CCC(=O)NC(=S)Nc1cccc(NC(=O)CC)c1 | inactive: -27.8%
CCC(C(=O)NC1CCCCC1)n1c2ccccc2c2nc(=O)cc(C)n21 (stereo not given) | inconclusive: 66%
COc1c(N)c2ccccc2[nH]c1=O | inconclusive: 65.1%
CN(C)C(=O)C[C@@H]1C=C[C@@H](NC(=O)Nc2cccc(F)c2)[C@@H](CO)O1 | inactive: -1.63%
O=C(O)c1ccc(NC2=C(Cl)C(=O)c3ccccc3C2=O)cc1 | inactive: -236%
C[C@H]1CCCCO[C@@H](CN(C)C(=O)CCCN(C)C)[C@@H](C)CN([C@@H](C)CO)C(=O)c2cc(NC(=O)c3ccccc3)ccc2O1 | inactive: 16.2%
CC1CCCC(C)N1C(=O)CSc1nnc(-c2c[nH]c3ccccc23)o1 (stereo not given) | inconclusive: 68.6%
Cc1ccc(S(=O)(=O)Nc2ccc3c(c2)C(=O)N([C@@H](C)CO)C[C@@H](C)[C@@H](CN(C)CC2CC2)OCCCC[C@@H](C)O3)cc1 | inactive: -11.7% and inactive: -3.79%
N#Cc1nc(Cc2ccccc2)oc1N1CCC(Cc2ccccc2)CC1 | inconclusive: 65.5%
Cc1ccc(S(=O)(=O)Nc2ccc3c(c2)CC(=O)N([C@H](C)CO)C[C@@H](C)[C@H](CN(C)Cc2ccc(-c4ccccc4)cc2)O3)cc1 | inconclusive: 65.4%
COc1ccc(S(=O)(=O)Nc2ccc3c(c2)C(=O)N([C@H](C)CO)C[C@@H](C)[C@@H](CN(C)C(=O)c2ccccc2)OCCCC[C@H](C)O3)cc1 | inactive: 3.29%
CSc1nnc(NC(=O)c2nc(S(=O)(=O)Cc3ccccc3F)ncc2Cl)s1 | inactive: -82.6%
COc1ccc(S(=O)(=O)Nc2cccc3c2O[C@H](CN(C)CC2CCCCC2)[C@H](C)CN([C@H](C)CO)C3=O)cc1 | inconclusive: 76.2%
CCC(=O)Nc1c(C#N)c2nc3ccccc3nc2n1-c1ccccc1C | active: 192%
CCN(CC)CCN(C(=O)Cn1nnc(-c2ccc(OC)c(OC)c2)n1)C(C(=O)NC1CCCC1)c1ccc(F)cc1 (stereo not given) | inactive: 9.37%
CC(C)NC(=O)Nc1ccc2c(c1)C(=O)N([C@H](C)CO)C[C@H](C)[C@H](CN(C)S(=O)(=O)c1ccccc1)O2 | inactive: -4.25%
CCOc1ccc(NC(=S)NC(=O)/C=C/c2ccc(OC)c(OC)c2)c([N+](=O)[O-])c1 | inconclusive: 67.3%
Cc1noc(C)c1S(=O)(=O)Nc1ccc2c(c1)CC(=O)N([C@H](C)CO)C[C@H](C)[C@@H](CN(C)Cc1ccc(C(F)(F)F)cc1)O2 | inconclusive: 67.4%
c1cncc(-c2cnc3ccccc3c2)c1 | inactive: 12.6%

SMILES | rescue of ATP level
Cc1ccc(NNC(=O)C2CCC2)cc1C | inconclusive: 80.5%
CCCCc1cc(=O)oc2cc(C)cc(OCC(=O)Nc3ccccn3)c12 | inconclusive: 78.5%
Nc1nnnn1/N=C/c1ccccn1 | active: 83.4%
Nc1nonc1-c1nc2ccccc2n1Cc1ccc(F)cc1Cl | active: 116%
NC(=O)NC(CC(=O)NCCc1ccc(S(N)(=O)=O)cc1)c1ccccc1Cl (stereo not given) | inconclusive: 68.1%
Cc1ccc(-c2cnc3c(c2)C(=O)N([C@H](C)CO)C[C@H](C)[C@@H](CN(C)C(=O)Cc2ccccc2)O3)cc1 | inconclusive: 87%
Cc1ccc(CN(CC(=O)N/N=C/c2ccco2)S(=O)(=O)c2ccc(C)cc2)cc1 | inconclusive: 85.5%
CCOC(=O)CSc1nc2ccc(C)cc2[nH]1 | inactive: 11.3%
CCCCn1c(SCc2ccccn2)nc2c1c(=O)n(C)c(=O)n2C | active: 117%
O=C(Nc1ccc(OC(F)(F)F)cc1)C1CC(c2ccc(F)cc2)=NO1 (stereo not given) | inactive: 2.06%
CCOc1ccc(OCCCCN(C)C)cc1 | active: 90.1%
CN(C(=O)c1ccc2c(c1)CCN2S(C)(=O)=O)c1ccccc1 | inactive: -5.84%
COc1ccc(S(=O)(=O)Nc2ccc3c(c2)CC(=O)N([C@@H](C)CO)C[C@H](C)[C@@H](CN(C)Cc2ccccc2)O3)cc1 | inconclusive: 66.5%
O=C(CSc1nc(-c2ccccc2)c(-c2ccccc2)o1)Nc1nncs1 | active: 102%
c1cncc(Oc2cccc(Oc3cccnc3)c2)c1 | active: 108%
CCOC(=O)C1CCN(C(=O)CSc2ccccc2)CC1 | inconclusive: 78.5%
COc1ccc(NC(=O)CSc2nccc(C)n2)cc1 | active: 113%
CO[C@@H]1CN(C)C(=O)c2ccc(NC(=O)NC(C)C)cc2OC[C@H](C)N(Cc2ccccc2)C[C@@H]1C | inactive: 12.9%
N#C/C(=N\Nc1ccc(Br)cc1)C(=N)N1CCOCC1 | inactive: -4.45%
CCC1CN(C(=O)N2CCC(C(=O)NCc3cccc(OC)c3OC)CC2)c2cc(C)ccc2O1 (stereo not given) | inconclusive: 65.5%
O=C(Nc1ccc(F)cc1)N[C@H]1C=C[C@H](CC(=O)N2CCOCC2)O[C@H]1CO | inactive: -5.3%
C[C@@H]1CN([C@@H](C)CO)C(=O)c2cc(C#CC3CCCC3)cnc2O[C@H]1CN(C)C(=O)Nc1ccccc1 | inconclusive: 66.8%
Cc1ccc(N(C(=O)C2CCC(=O)N2)C2(C(=O)NC3CCCCC3)CCCCC2)cc1 (stereo not given) | active: 119%
Cc1nnsc1S(=O)c1ccc(Br)cc1 (stereo not given) | inconclusive: 83.2%
Cc1ccc(N2C(=O)c3ccc(C(=O)Nc4cccnc4)cc3C2=O)c(C)c1 | active: 89.9%
